Counter-ions that a name gives are not always drawn. This is one part of the list. The data scatter; read single values as rough.
Tested on: MKN45
Assay: ALDHbr (CSC) cell proportion score relative to DMSO vehicle (ratio to DMSO); breast (SUM159) / gastric (MKN45) / pancreatic (PANC1) / colon cancer lines; ALDHbr cells have high ALDH activity and are rich in cancer stem cells (CSC); higher = more CSC (ALDHbr) cells remaining
Settings: 10 µM; 72 h
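Also: High-content imaging of ALDEFLUOR-stained cells with Hoechst-labelled nuclei in 384-well plates, triplicate wells, scored as Z-score against 0.1% DMSO vehicle, negative meaning fewer ALDHbr cells.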

SMILES	ALDHbr
CCC(=O)OCC(=O)[C@@]1(OC(=O)CC)[C@H](C)C[C@H]2[C@H]3[C@H]([C@@H](O)C[C@@]21C)[C@@]1(C)C=CC(=O)C=C1C[C@H]3Cl [Alclometasone dipropionate]	1.03
CN(C)CCOC(c1ccccc1)c1ccccc1 [Diphenhydramine hydrochloride]	0.968
CCOc1ccc(Cc2nccc3cc(OCC)c(OCC)cc23)cc1OCC [Ethaverine hydrochloride]	1.33

Tested on: PANC1
Assay: as above
Settings: 10 µM; 72 h

SMILES	ALDHbr
Cc1c(N(C)CS(=O)(=O)O)c(=O)n(-c2ccccc2)n1C [Dipyrone]	1.04
C=CCN1CCCC1CNC(=O)c1cc2nn[nH]c2cc1OC (configuration not stated) [Alizapride hydrochloride]	1.02
CCCCOC(=O)c1ccc(O)cc1 [Butylparaben]	0.91
CC1CCc2cc(F)cc3c(=O)c(C(=O)O)cn1c23 (configuration not stated) [Flumequine]	0.883
N[C@@H](C(=O)N[C@@H]1C(=O)N2C(C(=O)O)=C(Cl)CS[C@H]12)c1ccccc1 [Cefaclor hydrate]	0.986
CNCCCC1c2ccccc2C=Cc2ccccc21 [Protriptyline hydrochloride]	0.914
CN(C)CCC=C1c2ccccc2C=Cc2ccccc21 [Cyclobenzaprine hydrochloride]	0.972
COc1cc(C(=O)NC2CCCNC2)cc(OC)c1OC (configuration not stated) [Troxipide]	0.975
CCCN(CCC)C(=O)C(CCC(=O)O)NC(=O)c1ccccc1 (configuration not stated) [Proglumide]	0.879
CC(=O)Nc1c(I)c(NC(C)=O)c(I)c(C(=O)O)c1I [Diatrizoic acid dihydrate]	1
Cc1nc2n(c(=O)c1CCN1CCC(c3noc4cc(F)ccc34)CC1)CCCC2 [Risperidone]	0.951
Cc1cccc(N(C)C(=S)Oc2ccc3ccccc3c2)c1 [Tolnaftate]	0.777
COc1cc2c(cc1OC)C(=O)C(CC1CCN(Cc3ccccc3)CC1)C2 (configuration not stated) [Donepezil hydrochloride]	0.721
CCCc1cc(=O)[nH]c(=S)[nH]1 [Propylthiouracil]	0.943
O=C1OC(CN2CCOCC2)CN1/N=C/c1ccc([N+](=O)[O-])o1 (configuration not stated) [Furaltadone hydrochloride]	0.589
Cc1cccn2c(=O)c(-c3nnn[nH]3)cnc12 [Pemirolast potassium]	0.925
CCCCCCNC(=O)n1cc(F)c(=O)[nH]c1=O [Carmofur]	0.573
CN(C)CCn1nnnc1SCC1=C(C(=O)O)N2C(=O)[C@@H](NC(=O)Cc3csc(N)n3)[C@H]2SC1 [Cefotiam hydrochloride]	0.899
NC[C@@H]1O[C@H](O[C@H]2[C@@H](O)[C@H](O[C@@H]3[C@@H](O)[C@H](N)C[C@H](N)[C@H]3O[C@H]3O[C@H](CN)[C@@H](O)[C@H](O)[C@H]3N)O[C@@H]2CO)[C@H](N)[C@@H](O)[C@@H]1O [Neomycin sulfate]	0.891
NS(=O)(=O)c1cc2c(cc1C(F)(F)F)NCNS2(=O)=O [Hydroflumethiazide]	0.835
N=C(N)c1ccc(OCCCCCOc2ccc(C(=N)N)cc2)cc1 [Pentamidine isethionate]	0.336
CC(C)Cc1ccc([C@H](C)C(=O)O)cc1 [S-(+)-ibuprofen]	0.964
CS(=O)(=O)OCCCCOS(C)(=O)=O [Busulfan]	1
CN(C(=O)CN(CCO)CC(=O)N(C)C(C)(C)Cc1ccccc1)C(C)(C)Cc1ccccc1 [Oxethazaine]	0.992
CC(=O)O[C@H]1C[C@@]2(C)[C@@H](C[C@@H](O)[C@H]3[C@@]4(C)CC[C@@H](O)[C@@H](C)[C@@H]4CC[C@@]32C)/C1=C(\CCC=C(C)C)C(=O)O [Fusidic acid sodium salt]	0.472
CC[N+](C)(C)c1cccc(O)c1 [Edrophonium chloride]	0.9
CO/N=C(\C(=O)N[C@@H]1C(=O)N2C(C(=O)OC(C)OC(C)=O)=C(COC(N)=O)CS[C@H]12)c1ccco1 (some centres not stated) [Cefuroxime axetil]	0.963
C[C@]12CC[C@H]3C(=CCc4cc(O)ccc43)[C@@H]1CCC2=O [Equilin]	1.05
C[C@@H]1C[C@H]2[C@@H]3C[C@H](F)C4=CC(=O)C=C[C@]4(C)[C@@]3(Cl)[C@@H](O)C[C@]2(C)[C@H]1C(=O)COC(=O)C(C)(C)C [Clocortolone pivalate]	0.57

— the supplement of paper PMC11880418
